The whole screen tested about 39,000 compounds, of which about 220 (0.56%) showed activity. The list shows a part of the results.
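Also: static incubation at 37 °C against the wild-type strain, values averaged over two biological replicates.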

The subject of the assay is Escherichia coli K-12 BW25113. Description: relative growth (OD600 normalised to plate interquartile mean) (fraction); higher = less growth inhibition, active = 0.2 or less. The conditions noted are these: 50 µM; LB; incubation time: overnight (16-24 h).
For `C[C@@H]1CN([C@H](C)CO)C(=O)c2cc(NC(=O)Nc3cccc4ccccc34)ccc2O[C@@H]1CN(C)Cc1ccc(C(=O)Nc2ccccc2N)cc1`, the relative growth is inactive: 1.03. As for `CCOC(=O)CCCCCC(=O)Nc1ccc2c(c1)C(=O)N([C@@H](C)CO)C[C@H](C)[C@H](CN(C)S(C)(=O)=O)O2`, the relative growth was inactive: 0.979. Take `C[C@@H]1CN([C@@H](C)CO)C(=O)c2cc(NC(=O)Nc3ccc(C(F)(F)F)cc3)ccc2O[C@@H](C)CCCCO[C@@H]1CN(C)CC1CCCCC1`: the relative growth is inactive: 1.01.

Take `C[C@@H]1CN([C@H](C)CO)C(=O)c2cc(NC(=O)c3ccncc3)ccc2O[C@@H]1CN(C)Cc1ccc(C(=O)O)cc1`: the relative growth is inactive: 1.04.

For the molecule `CNC[C@H]1Oc2c(NS(=O)(=O)c3cn(C)cn3)cccc2C(=O)N([C@@H](C)CO)C[C@H]1C`, the relative growth is inactive: 1.02. Take `C[C@@H](N)c1nc2c(s1)CCCC2`: the relative growth was inactive: 0.962. As for `C[C@@H]1CCCCO[C@H](CN(C)C(=O)Nc2ccc(C(F)(F)F)cc2)[C@H](C)CN([C@H](C)CO)C(=O)c2cc(NS(=O)(=O)c3ccccc3)ccc2O1`, the relative growth is inactive: 0.989.

On to `C[C@@H]1CN([C@@H](C)CO)C(=O)c2cc(NC(=O)Nc3ccc4c(c3)OCO4)ccc2O[C@@H](C)CCCCO[C@@H]1CN(C)CC1CCCCC1`, for which the relative growth was inactive: 1.07. Take `Cc1noc(C)c1S(=O)(=O)Nc1ccc2c(c1)C(=O)N([C@H](C)CO)C[C@H](C)[C@H](CN(C)S(=O)(=O)c1ccc(F)cc1)O2`: the relative growth is inactive: 1.01. Consider `COc1ccc(S(=O)(=O)N(C)C[C@H]2OCCCC[C@H](C)Oc3ccc(NS(C)(=O)=O)cc3C(=O)N([C@@H](C)CO)C[C@H]2C)cc1`, for which the relative growth is inactive: 0.98. Take `CCS(=O)(=O)Nc1ccc2c(c1)C(=O)N(C)[C@@H]1CC[C@@H](CC(=O)NCc3ccc(OC)cc3)O[C@@H]1CO2`: the relative growth was inactive: 1.01. As for `CC(=O)N[C@@H](CCC(N)=O)C(=O)O`, the relative growth was inactive: 1.02.

Take `COc1ccc(NC(=O)N(C)C[C@H]2Oc3ccc(NC(=O)C4CC4)cc3CC(=O)N([C@@H](C)CO)C[C@H]2C)cc1`: the relative growth is inactive: 1.02. In the case of `Cc1cccc(S(=O)(=O)N2C[C@H](O)COC[C@@H]3O[C@H](CC(=O)N4CCN(C)CC4)CC[C@H]32)c1` it was inactive: 0.941; in that of `C[C@@H]1CCCCO[C@@H](CN(C)S(=O)(=O)c2cn(C)cn2)[C@H](C)CN([C@H](C)CO)C(=O)c2cc(NS(C)(=O)=O)ccc2O1`, inactive: 0.993. For `CN1CCc2nc(N)sc2C1`, the relative growth was inactive: 1.02.

Consider `COc1ccc(S(=O)(=O)Nc2cccc3c2O[C@H](CN(C)S(=O)(=O)c2cccs2)[C@H](C)CN([C@H](C)CO)C3=O)cc1`, for which the relative growth was inactive: 1.02. Next, `Cc1ccc(OCCN)c(Br)c1`: inactive: 0.963. Consider `CC(=CCC1=C(C)C(=O)c2ccccc2C1=O)CCCC(C)CCCC(C)CCCC(C)C` (centres undefined), for which the relative growth was inactive: 0.945.

For `C[C@H](CO)N1C[C@H](C)[C@H](CN(C)S(=O)(=O)c2ccccc2)Oc2ccc(NC(=O)c3ccncc3)cc2C1=O`, the relative growth was inactive: 0.997. In the case of `Cc1ccc(S(=O)(=O)N(C)C[C@H]2Oc3c(NC(=O)NC(C)C)cccc3C(=O)N([C@H](C)CO)C[C@H]2C)cc1`, the relative growth was inactive: 0.972.

Turning to `C[C@@H]1CCCCO[C@@H](CN(C)CC2CCCCC2)[C@H](C)CN([C@@H](C)CO)C(=O)c2cc(NC(=O)Nc3cccc4ccccc34)ccc2O1`, the relative growth is inactive: 1.01. In the case of `Nc1nc(N)c2c(n1)CCCC2`, the relative growth was inactive: 0.988. With `C[C@H](CO)N1C[C@H](C)[C@@H](CN(C)S(=O)(=O)c2ccc(Cl)cc2)OCCCC[C@H](C)Oc2ccc(NS(=O)(=O)c3ccccc3)cc2C1=O`, the relative growth is inactive: 1.02. Next, `C[C@@H]1CCCCO[C@@H](CN(C)C(=O)CCC(F)(F)F)[C@@H](C)CN([C@@H](C)CO)C(=O)c2cc(NS(=O)(=O)c3ccccc3)ccc2O1`: inactive: 0.994; `Cc1noc(C)c1S(=O)(=O)N(C)C[C@H]1Oc2ccc(NS(=O)(=O)c3ccc(F)cc3)cc2CC(=O)N([C@@H](C)CO)C[C@H]1C`: inactive: 1.01; `Nc1nc(-c2ccc(F)cc2)cs1`: inactive: 0.976. With `COc1cccc(S(=O)(=O)N[C@@H]2CC[C@@H](CCn3cc(-c4ccccc4OC)nn3)O[C@H]2CO)c1`, the relative growth was inactive: 0.99. With `C[C@H](CO)N1C[C@H](C)[C@H](CN(C)C(=O)c2ccc3c(c2)OCO3)Oc2cc(-c3cncnc3)ccc2S1(=O)=O`, the relative growth was inactive: 0.987. On to `C[C@@H]1CCCCO[C@H](CN(C)C(=O)CCC(F)(F)F)[C@H](C)CN([C@H](C)CO)C(=O)c2cc(NS(=O)(=O)c3cccs3)ccc2O1`, for which the relative growth was inactive: 1. Regarding `C[C@H]1CN([C@@H](C)CO)C(=O)c2cccc(NS(=O)(=O)c3ccc(F)cc3)c2O[C@@H]1CN(C)CC1CC1`, the relative growth was inactive: 0.973. Regarding `C[C@@H]1CN([C@@H](C)CO)C(=O)Cc2cc(NC(=O)c3ccncc3)ccc2O[C@H]1CN(C)Cc1ccc2c(c1)OCO2`, the relative growth was inactive: 0.965. `O=C(C[C@@H]1CC[C@H](NC(=O)c2ccc(F)cc2)[C@@H](CO)O1)NCc1ccncn1`: the relative growth was inactive: 0.986. Turning to `Cc1ccc(S(=O)(=O)N(C)C[C@H]2OCCCC[C@H](C)Oc3ccc(NC(=O)Nc4ccc(C(F)(F)F)cc4)cc3C(=O)N([C@@H](C)CO)C[C@@H]2C)cc1`, the relative growth was inactive: 1.02. For the molecule `CC(C)CC#Cc1ccc2c(c1)O[C@H](CN(C)C(=O)NC1CCCC1)[C@H](C)CN([C@H](C)CO)S2(=O)=O`, the relative growth is inactive: 0.931. In the case of `CCS(=O)(=O)Nc1ccc2c(c1)C(=O)N(C)C[C@@H](OC)[C@@H](C)CN(C(=O)c1ccc3c(c1)OCO3)[C@@H](C)CO2`, the relative growth is inactive: 1.01. Regarding `Cc1noc(C)c1NC(=O)N(C)C[C@H]1Oc2ccc(NS(C)(=O)=O)cc2C(=O)N([C@H](C)CO)C[C@@H]1C`, the relative growth was inactive: 0.957. `COc1ccc2c3c(n(c2c1)C)[C@H](CO)N(C[C@]13CCN(CC1)C(=O)c1ccccc1)C(=O)Nc1ccccc1F`: the relative growth was inactive: 1.02.

As for `C[C@@H]1CN([C@@H](C)CO)C(=O)c2cccc(NC(=O)C3CCCCC3)c2O[C@@H]1CN(C)C(=O)Nc1cccc2ccccc12`, the relative growth is inactive: 1.01.

The record behind these values is the supplement of paper PMC9446081.
